Data reported in PubChem BioAssay AID686979 (National Center for Advancing Translational Sciences (NCATS), 2013).
Out of some 420,000 compounds screened, about 50,000 (12%) were called active. The shares of active, inactive and inconclusive entries below differ from those in the screen. Calls follow the shape of the dose curve; as a rule, active = well fitted inhibition curve with a large enough effect; inconclusive = small, poorly fitted or top-dose-only effect; inactive = flat fitted curve, though single readings scatter. No potency is given beside an inconclusive call; the fits are too rough.

experiment: qHTS for Inhibitors of human tyrosyl-DNA phosphodiesterase 1 (TDP1): qHTS in cells in presence of CPT; details: chicken DT40 Tdp1-/-;hTDP1 cells + 20 nM CPT, ATP luminescence, 48 h; activity change, negative = growth inhibition: at 46.2 µM (top of the series) unless noted; also: nearly all actives have a fitted effect of over 55% in size
Method in brief: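 Chicken DT40 Tdp1-/- cells complemented with human TDP1, 400 cells/well, exposed to compounds plus 20 nM camptothecin for at least 48 h at 37 C; viability read as ATP content by CellTiter-Glo luminescence.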
% is scaled to controls: 0 for no effect and ±100 for the full control effect; potency is read from the fitted curve at half-maximal effect; tags tell the direction and shape of the fitted curve.

Structure (SMILES)	Potency	activity change, negative = growth inhibition
O=S(=O)(Nc1cccc(-c2ccc(N3CCCCCC3)nn2)c1)c1ccccc1	inconclusive [inhibitor, partial curve]	
O=C(Nc1nnc(-c2ccc3c(c2)CCCC3)o1)c1ccccc1Cl	inconclusive [inhibitor, single point]	
COc1ccc(C(CNC(=O)c2cc(SC)ccc2Cl)N(C)C)cc1 (configuration not stated)	inconclusive [inhibitor, single point]	
CCCc1nc(-c2ccccc2O)n(-c2ccccc2)n1	inactive	
CC(C)c1ccc(NC(=O)Nc2nc(C(N)COCc3ccccc3)cs2)cc1 (configuration not stated)	active: 16.4 µM	
Cc1ccc(S(=O)(=O)NCCc2sc3nc(-c4ccccc4)nn3c2C)cc1C	inactive	
COc1ccc(-c2nc(N3CCCCCC3)sc2C(=O)c2ccccc2)cc1	inconclusive [inhibitor, single point]	
O=C(c1cccc(Cl)c1)N(Cc1ccco1)Cc1ccccc1Cl	inconclusive [inhibitor, single point]	
Fc1ccc(-c2ccc(NCCN3CCOCC3)nn2)cc1	inactive	
Cc1cc(C)c(NC(=O)NC(=O)c2ccc(F)cc2)c(C)n1		inconclusive: -38.7% [inhibitor]
CCc1ccc(C2CC(c3cccc(OC)c3)n3nc(N)nc3N2)cc1 (configuration not stated)	inconclusive [inhibitor, partial curve, poor fit]	
Cc1nc(N)sc1-c1csc(Nc2ccccn2)n1	inconclusive [inhibitor, partial curve]	
O=C(c1ccc(Cl)c(Cl)c1)N1CCC(=O)N([C@H](COCc2ccc(Cl)cc2)Cc2ccccc2)CC1	inconclusive [inhibitor, single point]	
Cc1cc(NC(=O)c2noc3c2CCCC3)n(-c2ccccc2)n1	inconclusive [inhibitor, single point]	
CCC(=O)N/C(N)=N/c1nc(C)c2cc(OC)ccc2n1	active: 13 µM	
COC(c1ccc(Cl)cc1)(c1ccc(Cl)cc1)C(Oc1nccc(C)n1)C(=O)O (configuration not stated)	inactive	
Cc1ccnc(NC(=O)c2cccc(NC(=O)CC3SC(N4CCCCC4)=NC3=O)c2)c1 (configuration not stated)	inconclusive [inhibitor, partial curve, poor fit]	
COc1ccccc1CC(=O)N1CCN(c2ccccc2F)CC1	inactive	
Cc1oc(-c2cccc(Br)c2)nc1Cn1c(=O)cc(-c2ccccc2)c2c(C)nn(C)c21	inactive	
Cc1cc(NC(=O)C2CCCN2C(=O)Nc2c(C)cccc2C)ccc1-n1cnnn1 (configuration not stated)	inactive	
CC(C)(C)c1ccc(OCCCC(=O)N2CCOCC2)cc1	inconclusive [inhibitor, single point]	
NNc1nc(-c2ccccc2)c2cc(Br)ccc2n1	inconclusive [inhibitor, single point]	
COc1ccccc1/C=C/C(=O)OC(C)CN1CCCCC1 (configuration not stated)	inactive	
O=C(COC(=O)CNC(=O)c1cccc(OC(F)F)c1)NNC(=O)c1ccccc1	inactive	

Structure (SMILES)	Potency	activity change, negative = growth inhibition
Cc1c(Br)c([N+](=O)[O-])nn1CC(=O)N1CCN(C23CC4CC(CC(C4)C2)C3)CC1	inactive	
CCCCNc1ccc2c3c(cccc13)C(=O)N(CCCC)C2=O	active: 25.9 µM	
CCOC(=O)c1ccc2c(c1)N(Cc1cccc(C(F)(F)F)c1)C(=O)c1ccccc1S2(=O)=O	inconclusive [inhibitor, single point]	
COc1ccccc1NC(=O)C1=C(C)Nc2nc3ccccc3n2C1c1cccc(Br)c1 (configuration not stated)	inconclusive [inhibitor, single point]	
CN(C)CC/C=C1\c2cc(Cl)ccc2Sc2cc(F)c(F)cc21	inconclusive [inhibitor, single point]	
COc1ccc(N2CCN(Cc3cc(=O)oc4ccc(OC)cc34)CC2)cc1	inactive	
COc1ccc(N(C(=O)c2ccc(Br)o2)C2C=CS(=O)(=O)C2)c(OC)c1 (configuration not stated)	inconclusive [inhibitor, single point]	
CCc1ccccc1Nc1cc(C(=O)NCCc2ccccc2)c2ccccc2n1	inconclusive [inhibitor, single point]	
CN(C)Cc1c(C(=O)N/N=C/c2ccc(-c3ccccc3)cc2)nnn1-c1nonc1N	inconclusive [inhibitor, single point]	
COc1cc(C2Nc3ccccc3C(=O)N2Cc2ccco2)ccc1O (configuration not stated)	inconclusive [inhibitor, single point]	
Cc1ccc(CNC(=O)CCC(=O)N2Cc3ccccc3Oc3ncccc32)cc1	inactive	
COc1ccc(Cn2c(=O)[nH]c3cc(C(=O)N4CCN(c5ccccc5)CC4)ccc3c2=O)cc1	inactive	
CCOC(=O)CSc1nc2sc3c(c2c(=O)n1-c1ccc(OC)cc1)CCN(C)C3	inconclusive [inhibitor, single point]	
CC(C)N(Cc1nnc(-c2ccc(Cl)cc2)o1)C(=O)c1cc2ccccc2o1	inactive	
CCc1ccc(Nc2nnc(SCC(=O)N(C)C3CCS(=O)(=O)C3)s2)cc1 (configuration not stated)		inconclusive: -34.7% [inhibitor]
Cc1cc(-n2cnc(-c3cn(C)nc3C)n2)no1	inactive	
COc1ccc(OC)c(CCNc2nccn(-c3ccc(C)c(C)c3)c2=O)c1	active: 14.6 µM	
CCN(CC)S(=O)(=O)c1ccc(NC(=S)Nc2ccc(F)cc2)cc1	inconclusive [inhibitor, single point]	
CC1CCc2cc(F)cc3c(O)c(C(=O)NCC4CCCO4)c(=O)n1c23 (configuration not stated)	inconclusive [inhibitor, single point]	
COC(=O)c1cc(NS(=O)(=O)c2ccc(C)c3ccccc23)ccc1N1CCOCC1	inactive	
O=C(N/N=C/C=C/c1ccccc1)c1ccncc1	inconclusive [inhibitor, single point]	
COc1ccc(CCNC(=O)C2CCN(c3nc4ccccc4nc3C(F)(F)F)CC2)cc1OC	active: 23.1 µM	
CCCN1CCC(=O)N([C@H](CSc2ccc(C)cc2)Cc2ccccc2)CC1	active: 29.1 µM	
